Test results as given in the RNAGym collection of RNA variant scans (doi:10.7554/elife.90254).
The source gives no read counts; variants with many changes may rest on few reads.

B1: LINE1-full (parent)
chain: UACGUAGGUGGUUUUCCCCUGAUAGUGCUAAGGGGGCCUGGAAGUUUGGACUGGGCAGAGCUCAACACAGCGUGGCAAAGUGGCUGUGGCUAGACUGCCUCUCUGGAUUCCUCGUCACUCAGCAGGGCAUCUCUGAGAGAAAUGCC

Variants of: B1
Assay: self-cleavage, relative activity (ratio to wild type); higher = more cleavage; in vitro, sequencing; the parent is a self-cleaving ribozyme

Variant	self-cleavage
A50G U91C A142G	0.77
U47A U134G A138G	1.54
U47A A65C U109A	0.05
U47C A65G C103U U115C A117U	0.11
C51U A64G U104A	0.28
U46C U73A U81C	1.69
U46C U52C U143C	2.89
U47G A79G A142G	0.9
U47A U62C U104C U119A	0.03
A50G A67U U143A	0.09
U46C C63U A77C U130C	0.18
U47A U52A G58U A92G	0.05
U47C A69G G137U	0.38
A50G U52A G80U A92G U119C U132C	0
U46G A64U A92G U100C U112C	0
C51U C76U A77U	1.63
A50C A64G U85A A107G	0
U46C A92U A142G	0.31
U47A A65U U115C	0.1
U47C G55A G122C	1.11
G48U A57U U109C	0.11
U47A U112C U130C A138G	1.86
U47C G88U U96C A140G	0.28
U47C A69G G106U	0.6

Variant	self-cleavage
U46C U47A A79U	1.59
U47C A67G U73A U109C A121U A141G	0.41
U46C U115A A140G	1.9
A50G U62C A69U	0.09
A50G A59G U73C	0
G49C A78G U91C	0.38
U46C G53A C84A	0.11
A50U A64U A117U A140G	0.48
A50U U108C U112C U130C	1.37
A50G U73A A140G	1.25
G48U U134C A141G	1.37
U47A A67U G105U A117C A140G	0.33
U46C U52C U132C U143A	0
U46G A50U U81A U96C A141G	0
U46C A107U A140U	1.54
G48A A59G U112C U115C	0.08
U46C U85C U100C A142G	0
U47C A57U G83A A107G	0.04
A50U U62C A77U A94G	0.04
U47A U132C A138U	1.05
A50G U73C G105A	1.41
A50G U108A U134C A140G	0.8
U47C A124G A138G	2.03
A50U A64G A140G	0.27

Variant	self-cleavage
G49U U87C U143C	0.12
U47A G75A U108C	1.46
A50G U62C A79G	0
A50U U81C A136G	2.37
A50G A107G C116A U134C	1.09
G48A U102C U108C	1.12
G48U G60U A65G U100C C110U	0.01
G48U C51A U81C A129G	0.94
A50C U52A U62A C76U A94G	0
G49A U104G U119C U130C	1.38
G49U U81C U134C	2.72
U47C G70A U112G	0.15
U47C C61U U96C	0.03
A50G A140G A142G	0.41
A50U A65G U104A	0.03
A50U A65G U104C	0.08
A50G U91C A94U	0.67
U47C C66U U87A A107U	0.02
G48A G135U U143C	0.33
U47G G75A C118A	0.96
A50G U52A U115C	1.1
U47A U87A A142G	0.05
A50U A57G U143C	0.46
G48A A57U A94G G135U	0.03

Variant	self-cleavage
U46C U62C U115C	0
U47C A94U U132A A136G	0.5
U47A A57U A65G	0
U46C U108C U115C	1.84
U46C U81C A136U	2.14
U47C A124U U132C	1.61
A50G U112C G122A	1.18
U47A U112G A140G	0.5
A50G A77G U85C A138G	0.48
U47A A50U A67U A94U U143C	0.06
U46C C71A U109C	0.22
U47C C63A A124G A142G	0.04
U46C G70A A107G U119C	0.3
U46G U52C C128U A138G	1.81
G48A A77U U108C	1.05
G48A A78G A124G	0.74
U47A A77G U87A U115A	0.09
U47C A77G U96C G144A	0
A50G U91C C111U U115A	0.25
U47A A79G U81A U119C	2.07
U46C U112C U132C	2.51
U46C A129G U143C	2.12
U46C C99U A136G	1.05
U47A U100G A124U	0.8

Variant	self-cleavage
U47C U73A U115C	2.34
A50U A140G A142G	1.05
C51A A64G U119A U134C A140G	0.14
G48A A77G A140G	1.34
U46C A78G U87A	0.22
A50U U109A A117G G127A	0
U47C A92C U134C	0
U47C A69G U115A	0.66
U47A A77U U87G	0.14
U47C C66U A94G U134C	0.12
A50G A65G U87A	0.07
U47A A77C A94G	0
U46C U130C U134A	1.22
G49C A67G A77G C111A A141G	0.78
U47A U109C A140G	0.46
U47C U119C A121G	0.97
U47C A69G U130C	0.97
U47A A57G U73A U115A	0.33
U46C A77U A78G	1.19
A50U A69G U134C	0.22
C51A A77G A92G	0.23
A50G U115C C120U	2.09
U47A U52G A77U A92G	0.08
U47C U102C A107G	1.31

Variant	self-cleavage
U47C G55A U134C	1.15
G48C A57G A65G U143C	0
A50G G54U U85A A124G	0
A50G G75A C76U A79U	1.14
A50G U62C U102C U109A A140G	0
U47C A57G U62C A141G	0.38
U47A U130C A140G	2.09
U47C C51G U112A	1.88
U47C A57U U100A	0
U46C U104A U130C	0.74
U47A U81C U96C	0.05
A50G U85A G97A A107U U109A	0
U46C U73C C113A U115A	1.76
U47A A92G A107G	0.07
U46C U73A G135A	1.39
U47A A64U A94C A141G	0.07
U47C A69G U73A	0.47
G49C U119C U143C	0.8
U46C A107U A117U	1.3
U47C A50G A59G A121U A136U A138G	0.71
U47C C76A A121G	1.54
U47C G55A A141G	0.59
G48U A77U U96A A138G	0
A50G A94U U112A	0.23

Variant	self-cleavage
U47A C51U A57G U96A G122U A124G A138G	0.03
U47C U81C A124G C133U A136G	1.31
U47A G75C U108C	1.14
G49A U102C C111U A117G A121U	1.1
U47G A57G A69U A107G	0
U47A A124G A141U	0.75
U46C U91G G114A A138G	0
U47C U96A A142G	0.15
U46C G75A G97A U100A A138G	0.75
U47A U62C A64U U115G	0.25
A50G G72U U81A G89A C101U G114A	0.1
U46C G48A U134C	1.7
U47C U96A A136G	0.09
G49U C51U A67G U73C U132C	0.2
C51U A77G U112C	1.15
A50U A67C U91C	0.08
U47C C90U A107G	0.08
U47A A67U G93U A107G A117G	0
U47C G54U A117G U130C	1.53
A50U A59G U102C G137A	0.23
U47C U62A C90U G105A	0.01
U47C C68U A69G C101U A140U	0.15
U47A A65G A69G A124U U130C C145U	0.18
